Laboratory results reported in paper PMC7226468, “Insight into the RssB-Mediated Recognition and Delivery of σ^s to the AAA+ Protease, ClpXP” (Biomolecules, 2020).

Columns and labels:
[1] = biological target: T1, Trx-H6-RssB, wild type (E. coli, UniProt P0AEV1 1-337); assay: cell-based or functional assay
T1 sequence (looked up): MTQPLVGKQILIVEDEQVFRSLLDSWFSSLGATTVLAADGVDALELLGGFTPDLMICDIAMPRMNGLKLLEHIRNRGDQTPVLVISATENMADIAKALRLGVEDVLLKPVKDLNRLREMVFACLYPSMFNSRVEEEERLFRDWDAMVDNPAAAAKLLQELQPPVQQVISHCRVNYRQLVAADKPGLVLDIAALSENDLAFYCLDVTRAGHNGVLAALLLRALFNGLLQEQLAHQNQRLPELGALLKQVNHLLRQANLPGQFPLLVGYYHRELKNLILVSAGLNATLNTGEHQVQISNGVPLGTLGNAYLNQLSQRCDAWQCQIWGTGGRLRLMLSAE

[2] = biological target: T2, Trx-RssB D58E (E. coli, UniProt P0AEV1 1-337, D58E); assay: pull-down; Trx-RssB (wild type or mutant) immobilised on Ni-NTA agarose, untagged σS added, in the absence of AcP (Figure 6a,b); conditions: both partners purified
T2 construct: RssB, E. coli, full length with D58E; also called phospho-mimic mutant D58E; source: purified recombinant protein; not shown: Trx (thioredoxin), N-terminal, kept; His6, internal (between Trx and RssB, from the name Trx-H6-RssB), kept
T2 sequence (looked up): T1 sequence (looked up) with D58E

[3] = biological target: T3, Trx-RssB_(RE/AA) (E. coli, UniProt P0AEV1 1-337, RE/AA); assay: pull-down; Trx-RssB (wild type or mutant) immobilised on Ni-NTA agarose, untagged σS added, in the presence of AcP (Figures 6a,b and 8b); conditions: both partners purified
T3 construct: RssB, E. coli, full length; the charged residues RE central to the 116-LREM-119 motif replaced by alanine; With AcP phosphorylated at Asp58; source: purified recombinant protein; not shown: Trx (thioredoxin), N-terminal, kept; His6, internal (between Trx and RssB, from the name Trx-H6-RssB), kept
T3 sequence (looked up): T1 sequence (looked up) with R117A, E118A

[4] = biological target: T4, Trx-RssB_(R117A) (E. coli, UniProt P0AEV1 1-337, R117A); assay: as above; conditions: both partners purified
T4 construct: RssB, E. coli, full length with R117A; With AcP phosphorylated at Asp58; Used as the Trx-RssB of the SEC-SAXS experiments; source: purified recombinant protein; not shown: Trx (thioredoxin), N-terminal, kept; His6, internal (between Trx and RssB, from the name Trx-H6-RssB), kept
T4 sequence (looked up): T1 sequence (looked up) with R117A

[5] = biological target: T1, Trx-H6-RssB, wild type; assay: as above; conditions: both partners purified

- half-life of wild type σS in RssB-mediated turnover by ClpXP with equimolar, 2-fold and 5-fold excess of ΔNσS (from ~2.5 min without) [1]: ~20 min
B1: ΔNσ^S, σ^S lacking the first 50 residues (domain or fragment)
chain: not shown

- binding relative to RssB~P [2]: ~75%
- binding result [3]: binds
- binding result [4]: binds
- fold increase of binding on phosphorylation of RssB (against unphosphorylated RssB) [5]: ~3 fold
- apparent Km for the turnover of σS by ClpXP with phosphorylated RssB (RssB~P, with AcP) [1]: ~0.058 µM
- apparent Km for the turnover of σS by ClpXP with unphosphorylated RssB (no AcP) [1]: ~0.15 µM
B2: σ^S (SigmaS), untagged, wild type (natural protein)
chain: not shown
notes: starvation sigma factor σS (RpoS), E. coli, wild type; theoretical MW 38 kDa as printed; The printed theoretical mass (38 kDa) fits the whole protein; also called σ^38; RpoS; source: Ub-fusion system, purified (IMAC, SEC)

Residue numbers refer to the chain shown, from its start. One block for each binder: values may come before it.
